Measurements reported in PubChem BioAssay (NCATS).
Inconclusive results, whose numbers are uncertain, are shown with a selection of clear calls. Potencies of inconclusive entries are left out as doubtful fits. Activity calls are given as the source filed them. The call rests on the fitted dose curve; in most records, active means well fitted inhibition curve with a large enough effect; inconclusive means small, poorly fitted or top-dose-only effect; inactive means flat fitted curve, though single readings scatter.
Potency means the concentration at half of the fitted maximal effect; tags describe the fitted curve by direction and shape.

These molecules were tested against Aldehyde dehydrogenase, mitochondrial (Homo sapiens) (UniProt P05091) (assay: qHTS for Inhibitors of the Aldehyde Dehydrogenase Family (ALDH2) Primary screen (AID 2061308; further: nearly all actives have a fitted effect of over 55% in size)). Conditions: ALDH2 enzyme inhibition qHTS, 1536-well; series mostly up to 56 µM.
In the case of `O=C(NC1CCC1)c1ccc(C#Cc2cccc(F)c2)nc1`, the Potency is reported as “inactive”. In the case of `CO[C@H]1O[C@@H]2O[C@]3(C)CC[C@H]4[C@H](C)CC[C@@H]([C@H]1C)[C@@]24OO3`, the Potency is reported as “inactive”. For `COc1ccccc1-c1c[nH]c2ncc(-c3cncc(C(=O)N(C)C)c3)cc12`, the Potency was “inactive”. For `CCC(C)/C=C(C)/C=C/C(=O)C1CCC(O)C(C)(O)C1=O` (stereo not given), the Potency was inconclusive [inhibitor, partial curve, poor fit]. `CCC/C=C/c1cc2c(C=O)c(O)c(CC=C(C)C)cc2o1` was tested, and the Potency was inconclusive [inhibitor, single point]. With `CC(C)(C)c1ccc(C(=O)Nc2cn3cc(-n4ccnc4)ccc3n2)cc1` the Potency was “inactive”. With `COc1c(Nc2ncc(Cl)c(N[C@H]3[C@@H](C(N)=O)[C@@H]4C=C[C@H]3C4)n2)ccc2c1CC[C@@H](N1CCOCC1)CC2` the Potency was “inactive”. `C=CC(=O)Nc1ccc(CN2C(=O)N(c3cc(OC)cc(OC)c3)Cc3cnc(Nc4ccc(N5CCN(C)CC5)cc4)nc32)cc1` was tested, and the Potency was inconclusive [inhibitor, partial curve]. In the case of `CC1=C2C[C@@]3(C)C(CCC[C@@H]3C)C(O)C2OC1=O` (stereo not given in full), the Potency is reported as inconclusive [inhibitor, single point]. For `c1cc(NC2CCNCC2)nc(-c2cnc3ccccn23)c1`, the Potency was “inactive”.
